# Reference: PubChem BioAssay AID1347417 (National Center for Advancing Translational Sciences (NCATS), 2020)
# The campaign covered roughly 120,000 compounds. About 5,300 (4.4%) were called active. The shares of active, inactive and inconclusive entries below differ from those in the screen. Calls come from the whole dose curve; as a rule, active = well fitted inhibition curve with a large enough effect; inconclusive = small, poorly fitted or top-dose-only effect; inactive = no such curve, though single readings can be large or run the other way. Potencies beside an inconclusive call are fits to weak or partial responses and may not hold up.
# Test: qHTS Primary assay for Inhibitors of Plasmodium falciparum Dd2 growth in vitro; note: nearly all actives have a fitted effect of over 65% in size
# Settings: P. falciparum Dd2 growth, SYBR Green, 72 h; series mostly up to 28.9 µM
# In short: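 Infected erythrocytes (Dd2, 0.3% parasitemia, 2.5% hematocrit final) are added to compound in RPMI-1640/Albumax II medium, grown 72 h at 37C in low oxygen, then lysed with saponin/Triton-X containing SYBR Green and read by fluorescence.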
# Potency is the fitted concentration of half-maximal effect; tags give direction and shape of the fitted curve.
row,Structure (SMILES),Potency
1,COc1cncc(CN2CCC3(CC2)C(=O)Nc2cc(Oc4ccccc4)c(OC)cc23)c1,"inconclusive: 1.12 µM [inhibitor, partial curve, poor fit]"
2,CCOC(=O)c1cc(-c2ccccc2)n(CCCC(=O)Nc2ccccc2C)c1C,"inconclusive: 11.2 µM [inhibitor, single point]"
3,Cc1cccc(NC(=O)Nc2ccc(C)n(CC(=O)NC3CCCCC3)c2=O)c1,inactive
4,CCN1c2cc(C(=O)Nc3cccc4c3CCCC4)ccc2C(=O)N2CCCCCC21 (stereo not given),"inconclusive: 7.08 µM [inhibitor, partial curve, poor fit]"
5,O=C(Cn1cccc1-c1nc(-c2ccccc2)no1)N1CCN(c2ccccc2)CC1,inactive
6,CCN(CC)CCNc1nc(C)nc2c1c(C)nn2C,inactive
7,Cn1c(=O)c2c(-c3ccccc3)n(CCCO)cc2n(C)c1=O,inactive
8,OCC1(Cc2ccccc2)CCCN(Cc2ccccc2-c2ccco2)C1 (stereo not given),"inconclusive: 12.6 µM [inhibitor, single point]"
9,CC(C)C[C@@H]1N[C@H](C(=O)N2CCN(C)CC2)Cc2cn(Cc3cccnc3)c3cccc1c23,inactive
10,CCn1c(CN2CCOCC2)nc2cc(NC(=O)c3cccc([N+](=O)[O-])c3)ccc21,"inconclusive: 10 µM [inhibitor, single point]"
11,CN(C)C(=O)c1ccc(OC2CCN(C(=O)c3cccs3)CC2)nc1,"inconclusive: 0.316 µM [inhibitor, full curve]"
12,Cc1ncc2n1C(=O)N(C1CCN(Cc3ccc(OC(F)(F)F)cc3)CC1)C2,"inconclusive: 17.8 µM [inhibitor, single point]"
13,CCCc1nnc(NC(=O)Nc2ccccc2Cl)s1,inactive
14,Cc1ccc(C2=NC3(CCN(C(=O)c4cccc(Cl)c4)CC3)ON2)cc1,inactive
15,COc1ccc(CN2C=C(C(=O)OCc3noc(-c4ccc(C#N)cc4)n3)C(C)=NS2(=O)=O)cc1,"inconclusive: 17.8 µM [inhibitor, single point]"
16,CCC(CC)C(=O)NC[C@@H]1C=C(C)[C@H](Cc2nc3ccc(OC)cc3[nH]2)C[C@H]1C(C)C,"inconclusive: 20 µM [inhibitor, single point]"
17,O=C(CCn1ccn2nc3c(c2c1=O)CCCC3)Nc1ccc(F)c(F)c1,inactive
18,COc1ccc(C)cc1NC(=O)c1nnn(-c2c(C)cccc2C)c1C,"inconclusive: 10 µM [inhibitor, partial curve, poor fit]"
19,COc1ccc(Cl)cc1CN(C)c1cc(C2CC(N)C2)ncn1 (stereo not given),active: 10 µM
20,COc1ccc(-c2noc([C@@H]3Cc4nc[nH]c4CN3C(=O)c3cccs3)n2)cc1,"inconclusive: 22.4 µM [inhibitor, single point]"
